The other results are listed elsewhere or left out.
What follows are sequences tested against no compound (DMSO) (assay: log2 fold change of degron read counts, EGFP-low vs EGFP+ sorted cells; higher = lower degron-EGFP level without compound (poor expression or instability)). Details: compound: DMSO control; 18 h.
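Further: jurkat cells carrying a lentiviral library of mutant zinc finger degrons fused to EGFP plus mCherry, mCherry+ cells FACS sorted, degron abundance counted by next-generation sequencing.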

Sequence | log2 fold change of degron read counts
FKCPVCGALFTQKGNLLRHIKL | -0.444
FDCNVCGAGFTQKGNLLRHIKL | -0.947
LFCNQCGFYCTQKGNLLRHIKL | 2.07
LGCEICGFHCTQKGNLLRHIKL | 0.409
FACNICGAAFTQKGNLLRHIKL | -1.2
FQCDVCGAYFTQKGNLLRHIKL | -0.944
FKCNQCGADFTQKGNLLRHIKL | -1.26
FTCDVCGAHFTQKGNLLRHIKL | -2.04
FQCNQCGHTFTQKGNLLRHIKL | -1.9
FKCDQCGAWFTQKGNLLRHIKL | -0.14
FRCEICGRPFTQKGNLLRHIKL | -0.205
FSCPICGHEFTQKGNLLRHIKL | -1.51
FMCPICGRGFTQKGNLLRHIKL | -0.0279
FLCEICGRRFTQKGNLLRHIKL | -1.25
FTCDQCGAMFTQKGNLLRHIKL | -1.53
LCCEICGFGCTQKGNLLRHIKL | -0.239

Sequence | log2 fold change of degron read counts
FDCEICGHWFTQKGNLLRHIKL | 1.52
FNCNQCGHVFTQKGNLLRHIKL | -0.261
FLCPVCGAFFTQKGNLLRHIKL | 0.532
FGCDQCGAEFTQKGNLLRHIKL | -1.43
FHCSVCGHCFTQKGNLLRHIKL | -0.18
FACDICGAKFTQKGNLLRHIKL | -1.46
FKCEICGHHFTQKGNLLRHIKL | -1.7
FKCPICGADFTQKGNLLRHIKL | -0.308
FQCNQCGHIFTQKGNLLRHIKL | -0.286
FSCDICGATFTQKGNLLRHIKL | -1.35
FWCNVCGANFTQKGNLLRHIKL | 0.488
FGCEVCGAMFTQKGNLLRHIKL | -1.06
LRCPICGFLCTQKGNLLRHIKL | 1.62
FYCNQCGAMFTQKGNLLRHIKL | 0.574
FFCEICGHQFTQKGNLLRHIKL | -1.08
FKCEQCGAKFTQKGNLLRHIKL | -1.83

Source: the supplement of paper PMC12645437, “Orthogonal IMiD-Degron Pairs Induce Selective Protein Degradation in Cells” (ACS Chemical Biology, 2025)
